Measured values as given in the antibiotic and cytotoxicity screens of Wong et al. (2023).
This is one part of the list.

Legend:
HSkMC = human skeletal muscle cells; assay: cytotoxicity call (relative viability < 0.9); conditions: 10 µM
HepG2 = assay: cytotoxicity call (relative viability < 0.9); conditions: 10 µM
S. aureus RN4220 = assay: growth inhibition call (relative growth <= 0.2); conditions: 50 µM

## Cn1c(=O)c2c(nc(N3CCOCC3)n2CCN)n(C)c1=O
HSkMC
  cytotoxicity call: inactive
HepG2
  cytotoxicity call: inactive
S. aureus RN4220
  growth inhibition call: inactive

## Cl.O=c1n(CCCN2CCN(c3cccc(Cl)c3)CC2)nc2ccccn12
HSkMC
  cytotoxicity call: inactive
HepG2
  cytotoxicity call: inactive
S. aureus RN4220
  growth inhibition call: inactive

## Cc1noc(C)c1NC(=O)Nc1ccc2c(c1)C(=O)N([C@H](C)CO)C[C@H](C)[C@H](CN(C)Cc1ccncc1)OCCCC[C@@H](C)O2
HSkMC
  cytotoxicity call: inactive
HepG2
  cytotoxicity call: inactive
S. aureus RN4220
  growth inhibition call: inactive

## O=C1CN2CCN3CCN([C@@H](CO)[C@@H](O)CO)CCN(CC2)CC(=O)[O][Gd]([O]1)[O]C(=O)C3
HSkMC
  cytotoxicity call: inactive
HepG2
  cytotoxicity call: inactive
S. aureus RN4220
  growth inhibition call: inactive

## C[C@H](CO)N1C[C@H](C)[C@H](CN(C)S(=O)(=O)c2cccs2)Oc2ccc(NS(=O)(=O)c3ccc(F)cc3)cc2CC1=O
HSkMC
  cytotoxicity call: inactive
HepG2
  cytotoxicity call: inactive
S. aureus RN4220
  growth inhibition call: inactive

## C[C@H]1CN([C@@H](C)CO)C(=O)c2cc(C#Cc3cccc(F)c3)cnc2O[C@@H]1CN(C)Cc1ccccn1
HSkMC
  cytotoxicity call: inactive
HepG2
  cytotoxicity call: inactive
S. aureus RN4220
  growth inhibition call: inactive

## COc1ccc(CN(C)C[C@@H]2OCCCC[C@H](C)Oc3ccc(NC(=O)Nc4cccc5ccccc45)cc3C(=O)N([C@@H](C)CO)C[C@@H]2C)cc1
HSkMC
  cytotoxicity call: active
HepG2
  cytotoxicity call: inactive
S. aureus RN4220
  growth inhibition call: inactive

## COc1ccc(S(=O)(=O)N(C)C[C@H]2Oc3c(NC(=O)c4cc(C)nn4C)cccc3C(=O)N([C@@H](C)CO)C[C@H]2C)cc1
HSkMC
  cytotoxicity call: inactive
HepG2
  cytotoxicity call: inactive
S. aureus RN4220
  growth inhibition call: inactive

## COCC(=O)N1C[C@H](C)[C@@H](OC)CN(C)C(=O)c2ccc(NC(=O)c3cc(C)on3)cc2OC[C@@H]1C
HSkMC
  cytotoxicity call: inactive
HepG2
  cytotoxicity call: inactive
S. aureus RN4220
  growth inhibition call: inactive

## CC1(C)CNCC(=O)NC1
HSkMC
  cytotoxicity call: inactive
HepG2
  cytotoxicity call: inactive
S. aureus RN4220
  growth inhibition call: inactive

## C[C@@H]1CN([C@H](C)CO)C(=O)c2cc(NS(=O)(=O)c3ccc(Cl)cc3)ccc2O[C@@H]1CN(C)Cc1ccc(C(F)(F)F)cc1
HSkMC
  cytotoxicity call: active
HepG2
  cytotoxicity call: active
S. aureus RN4220
  growth inhibition call: inactive

## C[C@H](CO)N1C[C@H](C)[C@@H](CN(C)C(=O)Nc2ccc(C(F)(F)F)cc2)Oc2ccc(NC(=O)NC3CCCCC3)cc2C1=O
HSkMC
  cytotoxicity call: inactive
HepG2
  cytotoxicity call: inactive
S. aureus RN4220
  growth inhibition call: inactive

## C[C@H]1CN([C@@H](C)CO)C(=O)c2cc(NC(=O)CCCN(C)C)ccc2O[C@@H]1CN(C)S(=O)(=O)c1ccc(Cl)cc1
HSkMC
  cytotoxicity call: inactive
HepG2
  cytotoxicity call: inactive
S. aureus RN4220
  growth inhibition call: inactive

## COc1ccc(C(=O)c2ccc(C)cc2)c(O)c1
HSkMC
  cytotoxicity call: inactive
HepG2
  cytotoxicity call: inactive
S. aureus RN4220
  growth inhibition call: inactive

## NCC[C@H]1CC[C@H](NC(=O)Cc2ccncc2)[C@@H](CO)O1
HSkMC
  cytotoxicity call: inactive
HepG2
  cytotoxicity call: inactive
S. aureus RN4220
  growth inhibition call: inactive

## COc1ccc(CN(C)C[C@@H]2Oc3ccc(NC(=O)Nc4ccc(C(F)(F)F)cc4)cc3C(=O)N([C@@H](C)CO)C[C@H]2C)cc1
HSkMC
  cytotoxicity call: active
HepG2
  cytotoxicity call: active
S. aureus RN4220
  growth inhibition call: inactive

## C[C@@H]1CN([C@@H](C)CO)C(=O)c2cc(NC(=O)NC3CCCCC3)ccc2O[C@@H](C)CCCCO[C@H]1CN(C)CC1CC1
HSkMC
  cytotoxicity call: inactive
HepG2
  cytotoxicity call: inactive
S. aureus RN4220
  growth inhibition call: inactive

## Cc1cc(C)c(NC(=O)CN(CC(=O)O)CC(=O)O)c(C)c1Br
HSkMC
  cytotoxicity call: inactive
HepG2
  cytotoxicity call: inactive
S. aureus RN4220
  growth inhibition call: inactive

## CC(=O)N(C)C[C@H]1Oc2ncc(C#CC(C)(C)O)cc2C(=O)N([C@@H](C)CO)C[C@H]1C
HSkMC
  cytotoxicity call: inactive
HepG2
  cytotoxicity call: inactive
S. aureus RN4220
  growth inhibition call: inactive

## Cc1noc(C)c1S(=O)(=O)Nc1ccc2c(c1)CC(=O)N([C@H](C)CO)C[C@H](C)[C@@H](CN(C)Cc1ccc(-c3ccccc3)cc1)O2
HSkMC
  cytotoxicity call: active
HepG2
  cytotoxicity call: active
S. aureus RN4220
  growth inhibition call: inactive

## C[C@H](CO)N1C[C@H](C)[C@H](CN(C)C(=O)Nc2ccc(F)cc2)OCCCC[C@H](C)Oc2ccc(NC(=O)C3CCCCC3)cc2C1=O
HSkMC
  cytotoxicity call: inactive
HepG2
  cytotoxicity call: inactive
S. aureus RN4220
  growth inhibition call: inactive

## C[C@H]1CCCCO[C@H](CN(C)C(=O)Nc2ccc3c(c2)OCO3)[C@@H](C)CN([C@@H](C)CO)C(=O)c2cc(NC(=O)c3ccccc3)ccc2O1
HSkMC
  cytotoxicity call: inactive
HepG2
  cytotoxicity call: inactive
S. aureus RN4220
  growth inhibition call: inactive

## C[C@@H]1CCCCO[C@H](CN(C)C(=O)CCC(F)(F)F)[C@@H](C)CN([C@H](C)CO)C(=O)c2cc(NC(=O)Cc3ccccc3)ccc2O1
HSkMC
  cytotoxicity call: inactive
HepG2
  cytotoxicity call: inactive
S. aureus RN4220
  growth inhibition call: inactive

## Cc1cc(-c2nnc(N)o2)nn1C
HSkMC
  cytotoxicity call: inactive
HepG2
  cytotoxicity call: inactive
S. aureus RN4220
  growth inhibition call: inactive

## CC(C)NC(=O)Nc1cccc2c1O[C@H](CN(C)Cc1ccc(Oc3ccccc3)cc1)[C@@H](C)CN([C@@H](C)CO)C2=O
HSkMC
  cytotoxicity call: inactive
HepG2
  cytotoxicity call: active
S. aureus RN4220
  growth inhibition call: inactive

## COCC(=O)N[C@H]1C=C[C@H](CC(=O)N2CCCCC2)O[C@@H]1CO
HSkMC
  cytotoxicity call: inactive
HepG2
  cytotoxicity call: inactive
S. aureus RN4220
  growth inhibition call: inactive

## CCCC(=O)Nc1ccc2c(c1)OC[C@@H](C)N(S(=O)(=O)c1cn(C)cn1)C[C@H](C)[C@H](OC)CN(C)C2=O
HSkMC
  cytotoxicity call: inactive
HepG2
  cytotoxicity call: inactive
S. aureus RN4220
  growth inhibition call: inactive

## C[C@@H]1CN([C@H](C)CO)C(=O)Cc2cc(NS(=O)(=O)c3ccccc3)ccc2O[C@H]1CN(C)S(=O)(=O)c1ccccc1
HSkMC
  cytotoxicity call: inactive
HepG2
  cytotoxicity call: inactive
S. aureus RN4220
  growth inhibition call: inactive

## Cc1noc(C)c1NC(=O)N(C)C[C@@H]1OCCCC[C@@H](C)Oc2ccc(NS(=O)(=O)c3ccc(Cl)cc3)cc2C(=O)N([C@H](C)CO)C[C@H]1C
HSkMC
  cytotoxicity call: inactive
HepG2
  cytotoxicity call: inactive
S. aureus RN4220
  growth inhibition call: inactive
